# According to patent US7319000B1, “Compositions and methods for eliciting immune or anti-infective responses” (priority 1992, dated 2008):
# Experiments:
# [1] = test system: PLN cells from A SW × Balb/c F1 mice; test: In vitro proliferation (3H-TdR) of PLN cells from immunized A.SW x BALB/c F1 mice; format: in vivo, A.SWXBALB/C F1 mice; design: key: −: cpm values are corrected and categorized according to unrelated antigen response in vitro.; •: Not determined.; +: cpm values are corrected and categorized according to unrelated antigen response in vitro.; ++: cpm values are corrected and categorized according to unrelated antigen response in vitro.; +++: cpm values are corrected and categorized according to unrelated antigen response in vitro.; ++++: cpm values are corrected and categorized according to unrelated antigen response in vitro; conditions: in vitro antigen: GP 160
# [2] = test system: PLN cells from B6C3F1 mice; test: In vitro proliferation (3H-TdR) of PLN cells from immunized B6C3 F1 mice; format: in vivo; design: key: −: cpm values are corrected and categorized according to unrelated antigen response in vitro.; •: Not determined.; +: cpm values are corrected and categorized according to unrelated antigen response in vitro.; ++: cpm values are corrected and categorized according to unrelated antigen response in vitro.; +++: cpm values are corrected and categorized according to unrelated antigen response in vitro.; ++++: cpm values are corrected and categorized according to unrelated antigen response in vitro; conditions: in vitro antigen: GP 160
# [3] = test system: BALB/c mice; test: Anti-peptide antibody response (ELISA) in BALB/c mice immunized with peptide multimers; format: in vivo; conditions: high molecular weight forms of the peptides
sequence,measurement,setting,value
"CRIKQIINMWQGVGKAMYAPPIGGQIRC [Peptide 67, gp160 aa 417-444]","In Vitro Proliferation of PLN Cells from A SW × Balb/c F1, GP 160",[1],++
same,"In Vitro Proliferation of PLN Cells from B6C3F1, GP 160",[2],−
same,anti-peptide antibody response (in words),[3],high antibody titers
